{"source": "PubChem BioAssay AID488969", "about": "(Vanderbilt High Throughput Screening Facility, 2010)", "note": "Over roughly 110,000 compounds, “z-score” has its median near -0.1; the highest 2% begin near 2. The list shows a part of the results. Active and inactive are the calls of the source.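 How the source made its calls: active means z-score in the third read window above 3 or below -3; inactive means the rest.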"}
{"molecular_target": "Metabotropic glutamate receptor 8 (Rattus norvegicus) (UniProt P70579)", "sequence (P70579 whole entry, looked up)": "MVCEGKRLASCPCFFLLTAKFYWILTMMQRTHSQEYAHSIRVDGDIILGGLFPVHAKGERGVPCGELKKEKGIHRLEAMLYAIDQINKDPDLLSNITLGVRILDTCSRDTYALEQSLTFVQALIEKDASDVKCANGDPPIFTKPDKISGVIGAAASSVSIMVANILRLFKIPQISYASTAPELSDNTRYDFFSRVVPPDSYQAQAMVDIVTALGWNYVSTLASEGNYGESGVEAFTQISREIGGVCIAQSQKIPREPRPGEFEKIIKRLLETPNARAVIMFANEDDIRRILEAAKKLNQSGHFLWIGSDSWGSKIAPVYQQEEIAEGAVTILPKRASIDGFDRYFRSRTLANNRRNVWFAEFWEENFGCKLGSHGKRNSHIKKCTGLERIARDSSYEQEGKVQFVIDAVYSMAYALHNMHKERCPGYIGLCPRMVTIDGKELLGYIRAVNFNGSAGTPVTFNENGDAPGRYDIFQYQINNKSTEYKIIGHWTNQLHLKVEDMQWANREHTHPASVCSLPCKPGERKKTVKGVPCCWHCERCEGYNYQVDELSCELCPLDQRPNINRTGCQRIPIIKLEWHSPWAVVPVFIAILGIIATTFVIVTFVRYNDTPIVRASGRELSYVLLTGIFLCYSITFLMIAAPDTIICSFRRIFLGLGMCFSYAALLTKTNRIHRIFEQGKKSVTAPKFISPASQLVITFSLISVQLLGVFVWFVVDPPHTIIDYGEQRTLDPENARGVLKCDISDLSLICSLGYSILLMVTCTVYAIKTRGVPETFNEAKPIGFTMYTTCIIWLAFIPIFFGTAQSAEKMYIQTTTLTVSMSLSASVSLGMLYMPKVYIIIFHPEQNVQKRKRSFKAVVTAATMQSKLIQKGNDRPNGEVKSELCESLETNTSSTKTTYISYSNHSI", "assay": "rat mGluR8 modulators via GIRK flux, primary screen, cell-based, thallium flux, HTS (AID 488969)", "conditions": "HEK293 rat mGluR8, GIRK (G protein-gated inwardly rectifying potassium channel) thallium flux, FluoZin2; at 10 µM; stronger effect = higher value; submaximal glutamate (EC20) added with thallium"}
{"smiles": "Cc1c(Cl)cccc1NC(=S)NCCc1ccc(S(N)(=O)=O)cc1", "z-score": 1.06}
{"smiles": "CN1CCN(NC(=O)c2cc(S(=O)(=O)N3CCOCC3)c(Cl)cc2Cl)CC1", "z-score": -0.167}
{"smiles": "O=C(CSc1ncnc2c1oc1ccccc12)NCc1ccc(F)cc1", "z-score": -0.486}
{"smiles": "Cn1c(=O)c2c(nc(OCc3cccnc3)n2Cc2c(F)cccc2Cl)n(C)c1=O", "z-score": -2.54}
{"smiles": "O=C1c2ccccc2C(=O)N1Cc1nc(-c2ccccn2)no1", "z-score": 0.0421}
{"smiles": "CCn1c(C)nc2cc(C(=O)n3cc(C(=O)c4ccccc4O)cn3)ccc21", "z-score": -0.483}
{"smiles": "O=C(O)c1ccccc1CSc1ncn[nH]1", "z-score": 0.0493}
{"smiles": "COc1cc2c(cc1NC(=O)Nc1ccc(C)cc1)oc1ccccc12", "z-score": -0.398}
{"smiles": "CSc1nnc(C)c(=O)n1COC(=O)c1ccc(S(=O)(=O)N2CCOCC2)cc1", "z-score": -0.333}
{"smiles": "O=C(CSc1cccc(C(F)(F)F)c1)NCc1ccccc1", "z-score": 0.252}
{"smiles": "CCCCCCCOC(=O)c1ccc(OC(=O)c2cccnc2)cc1", "z-score": -0.32}
{"smiles": "CCCCOc1ccc(C(=O)Oc2ccc(C)nc2)cc1", "z-score": -0.0482}
{"smiles": "CCC1CCC(c2nnc(-c3ccc([N+](=O)[O-])cc3)o2)CC1", "note": "(stereo unspecified)", "z-score": -0.252}
{"smiles": "CCOC(=O)N1CCC(Nc2c(NCCCN(CC)c3cccc(C)c3)c(=O)c2=O)CC1", "z-score": 0.617}
{"smiles": "N#Cc1nc(Cc2ccccc2)oc1N1CCC(C(N)=O)CC1", "z-score": 0.14}
{"smiles": "CCOC(=O)c1c(C)n(C)c2ccc(OCC(O)CNC(CC)CO)cc12", "note": "(stereo unspecified)", "z-score": 0.0591}
{"smiles": "COc1ccc(C)cc1NC(=O)CNC(=O)Cn1ccc2ccccc2c1=O", "z-score": 0.669}
{"smiles": "N#CC1=C(N)SC(N)=C(C#N)C1c1ccnc2ccccc12", "z-score": -0.246}
{"smiles": "O=C1CC(SC2=NCCS2)C(=O)N1c1ccc(Cl)cc1", "note": "(stereo unspecified)", "z-score": -0.135}
{"smiles": "O=C(NC1CCN(C(=S)NCc2ccco2)CC1)c1ccc(F)cc1", "z-score": -0.521}
{"smiles": "O=C(CN(C1CCCCC1)S(=O)(=O)c1ccc(Cl)cc1)N1CCOCC1", "z-score": -0.292}
{"smiles": "Cc1ccc2[nH]c3c(=O)n(CCC4=CCCCC4)cnc3c2c1", "z-score": -0.447}
{"smiles": "CCC(C)(C)C(=O)Nc1ncc(S(=O)(=O)c2ccc([N+](=O)[O-])cc2)s1", "z-score": -0.167}
{"smiles": "CCN(C(=O)c1cnc(N2CCN(c3ncccn3)CC2)c2ccccc12)c1cccc(Cl)c1", "z-score": -0.459}
{"smiles": "CC1Cn2c(COc3ccccc3)nnc2S1", "note": "(stereo unspecified)", "z-score": 0.617}
{"smiles": "COc1ccc(C2CC(c3ccc(Cl)c(Cl)c3)Nc3nc(N)nn32)cc1", "note": "(stereo unspecified)", "z-score": "active: 3.08"}
{"smiles": "O=C(c1n[nH]c(=O)c2ccccc12)N1CCN(c2ccccc2Cl)CC1", "z-score": -0.0334}
{"smiles": "Cc1cc(=O)n(C)c(=O)n1CCCCCN1CCCC1", "z-score": 0.974}
{"smiles": "O=C(c1ccccc1NS(=O)(=O)c1cccs1)N1CCOCC1", "z-score": 0.192}
{"smiles": "Cn1c(N)c(C(=O)COC(=O)C2CCCCC2)c(=O)n(C)c1=O", "z-score": -0.182}
{"smiles": "O=C(Nc1ccccc1Cl)c1c(F)c(F)c(F)c(F)c1F", "z-score": -0.281}
